Test results as given in PubChem BioAssay (Tox21).
Inconclusive means that the source gave no clear call. Such entries were picked first, then a sample of the others. No potency is given beside an inconclusive call; the fits are too rough. Calls of active or inactive are those of the source. Unless noted, calls come from the whole dose curve; as a rule, active = well fitted curve in the direction sought with a large enough effect in the repeat runs; inconclusive = weak or mixed curves; inactive = no such curve, though single readings can be large; an effect the other way counts as inactive or inconclusive.

Tested on: not listed separately
Assay: qHTS assay to identify small molecule antagonists of the estrogen receptor alpha (ER-alpha) signaling pathway using the BG1 cell line - cell viability counter screen (AID 743081);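 note: compound given together with 17beta-estradiol as the ER stimulus; nearly all actives have a fitted effect of over 45% in size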; for activity change, negative = cytotoxicity: % is set by controls: 0 for no effect and ±100 for the full control effect
Conditions: BG1Luc4E2 viability, CellTiter-Fluor, 22 h; activity change, negative = cytotoxicity: at 70.3 µM (top of the series) unless noted
Potency is the fitted concentration of half-maximal effect; tags give direction and shape of the fitted curve or compound fluorescence and quenching.

Compound	Potency
O=C1N=C2SCCN2C(=O)C1Cc1ccc(Cl)cc1 (stereo not drawn)	inactive
CCCCCCCCCCCCCCCC(=O)O[C@@H]1[C@@H](O)[C@@H](O)[C@@H]([C@H](NC(=O)[C@@H]2C[C@@H](CCC)CN2C)[C@H](C)Cl)O[C@@H]1SC	inactive
CC[N+](CC)(CC)CCC(O)(c1ccccc1)C1CCCCC1 (stereo not drawn)	inconclusive [cytotoxic, single point]
NCCCNCCCCNC(=O)C(O)NC(=O)CCCCCCN=C(N)N (stereo not drawn)	inconclusive [cytotoxic, partial curve]
CC(C)C[C@@H](NC(=O)[C@@H](O)[C@H](N)Cc1ccccc1)C(=O)O	active: 2.37 µM

Tested on: not listed separately
Assay: qHTS assay to identify aromatase inhibitors - cell viability counter screen (AID 743084);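 note: cells stimulated with testosterone during compound exposure; nearly all actives have a fitted effect of over 55% in size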; for activity change, negative = cytotoxicity: % is set by controls: 0 for no effect and ±100 for the full control effect
Conditions: MCF-7 aro ERE viability, CellTiter-Fluor, 24 h; activity change, negative = cytotoxicity: at 70.3 µM (top of the series) unless noted

Compound	Potency
CCC(=O)NS(=O)(=O)c1ccc(-c2c(-c3ccccc3)noc2C)cc1	inactive
CCc1cn([C@H]2C[C@H](O)[C@@H](CO)O2)c(=O)[nH]c1=O	inactive
CC(C)C[C@H](NC(=O)[C@@H](COC(C)(C)C)NC(=O)[C@H](Cc1ccc(O)cc1)NC(=O)[C@H](CO)NC(=O)[C@H](Cc1c[nH]c2ccccc12)NC(=O)[C@H](Cc1cnc[nH]1)NC(=O)[C@@H]1CCC(=O)N1)C(=O)N[C@@H](CCCN=C(N)N)C(=O)N1CCC[C@H]1C(=O)NNC(N)=O	inactive
C/C(=C(/CCO)SSCC1CCCO1)N(C=O)Cc1cnc(C)nc1N (stereo not drawn)	inconclusive [cytotoxic]
NCCCNCCCCNC(=O)C(O)NC(=O)CCCCCCN=C(N)N (stereo not drawn)	inactive
CC(C)C[C@@H](NC(=O)[C@@H](O)[C@H](N)Cc1ccccc1)C(=O)O	active: 0.75 µM

Molecular target: Aryl hydrocarbon receptor (Homo sapiens) (UniProt P35869)
Chain of UniProt P35869 (P35869 whole entry, looked up): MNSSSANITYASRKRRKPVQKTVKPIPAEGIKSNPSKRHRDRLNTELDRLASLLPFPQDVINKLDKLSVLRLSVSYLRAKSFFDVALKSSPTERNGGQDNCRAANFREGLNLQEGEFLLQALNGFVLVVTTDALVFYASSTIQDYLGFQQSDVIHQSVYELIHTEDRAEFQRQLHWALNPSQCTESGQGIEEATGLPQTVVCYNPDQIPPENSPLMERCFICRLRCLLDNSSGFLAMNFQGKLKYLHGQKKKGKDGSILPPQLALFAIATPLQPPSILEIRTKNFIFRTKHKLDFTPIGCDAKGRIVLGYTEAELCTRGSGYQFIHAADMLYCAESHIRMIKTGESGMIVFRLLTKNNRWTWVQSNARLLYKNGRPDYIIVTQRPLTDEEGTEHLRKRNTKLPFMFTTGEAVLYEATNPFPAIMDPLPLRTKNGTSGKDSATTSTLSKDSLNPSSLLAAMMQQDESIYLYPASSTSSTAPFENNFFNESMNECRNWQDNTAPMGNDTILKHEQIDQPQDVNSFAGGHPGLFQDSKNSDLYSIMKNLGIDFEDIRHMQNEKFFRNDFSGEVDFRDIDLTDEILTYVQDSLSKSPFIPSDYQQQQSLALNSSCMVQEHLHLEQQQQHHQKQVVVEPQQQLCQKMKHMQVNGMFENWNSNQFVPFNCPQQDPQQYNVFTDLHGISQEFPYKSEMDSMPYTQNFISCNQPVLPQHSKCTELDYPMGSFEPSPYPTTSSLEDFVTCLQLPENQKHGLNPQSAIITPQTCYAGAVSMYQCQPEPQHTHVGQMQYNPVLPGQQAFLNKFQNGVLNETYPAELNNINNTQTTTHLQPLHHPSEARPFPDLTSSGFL
Assay: qHTS assay to identify small molecule that activate the aryl hydrocarbon receptor (AhR) signaling pathway (AID 743085); note: nearly all actives have a fitted effect of over 15% in size;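 for activation: HG2L7.5c1 human HepG2 liver cells with stably integrated DRE-driven firefly reporter; % is set by controls: 0 for no effect and ±100 for the full control effect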
Conditions: HepG2 AhR-luc (HG2L7.5c1), luciferase, 24 h; series mostly up to 70.3 µM
Method in brief: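 Stably transfected human liver carcinoma cells (HG2L7.5c1; 20 DRE-firefly luciferase) were incubated 5 h, dosed, and kept 24 h at 37C. Agonism was scored from increased luciferase luminescence.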

Compound	Potency
CC(=O)Oc1cccc(C(=O)O)c1OC(C)=O	inactive
O=C(O)COc1ccccc1/C=N/NC(=O)c1ccncc1	inconclusive [activator, partial curve]
CCOc1ccc(S(=O)(=O)O)c2cccnc12	inactive
CC1(C)S[C@@H]2[C@H](NC(=O)C(C(=O)Oc3ccc4c(c3)CCC4)c3ccccc3)C(=O)N2[C@H]1C(=O)O (stereo partly drawn)	inconclusive [activator, single point]

Tested on: not listed separately
Assay: qHTS assay to identify small molecule that activate the aryl hydrocarbon receptor (AhR) signaling pathway - cell viability counter screen (AID 743086); note: nearly all actives have a fitted effect of over 45% in size
Conditions: HepG2-AhR-luc viability, CellTiter-Fluor, 24 h; series mostly up to 70.3 µM
Method in brief: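 HepG2-AhR-luc (HG2L7.5c1) cells, 4000/well, were preincubated 5 h at 37C, exposed to compound in qHTS format for 24 hr at 37C, then given CellTiter-Fluor for 30 min; viability was read as fluorescence in the reporter wells.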

Compound	Potency
C[C@]12CC[C@@H]3c4ccc(OS(=O)(=O)O)cc4CC[C@H]3[C@@H]1CCC2=O	inconclusive [falling, single point]
NC[C@@H]1O[C@H](O[C@H]2[C@@H](O)[C@H](O[C@@H]3[C@@H](O)[C@H](N)C[C@H](N)[C@H]3O[C@H]3O[C@H](CN)[C@@H](O)[C@H](O)[C@H]3N)O[C@@H]2CO)[C@H](N)[C@@H](O)[C@@H]1O	inconclusive [falling, single point]
CCCCCCCCCCCCCCCC(=O)OCCC1CCN(CCCN2c3ccccc3Sc3ccc(S(=O)(=O)N(C)C)cc32)CC1	inconclusive [rising, full curve, poor fit]
O=C1N=C2SCCN2C(=O)C1Cc1ccc(Cl)cc1 (stereo not drawn)	inconclusive [rising, full curve]
CC(C)C[C@@H](NC(=O)[C@@H](O)[C@H](N)Cc1ccccc1)C(=O)O	active: 0.376 µM

Molecular target: Peroxisome proliferator-activated receptor gamma (Homo sapiens) (UniProt P37231)
Chain of UniProt P37231 (P37231 whole entry, looked up): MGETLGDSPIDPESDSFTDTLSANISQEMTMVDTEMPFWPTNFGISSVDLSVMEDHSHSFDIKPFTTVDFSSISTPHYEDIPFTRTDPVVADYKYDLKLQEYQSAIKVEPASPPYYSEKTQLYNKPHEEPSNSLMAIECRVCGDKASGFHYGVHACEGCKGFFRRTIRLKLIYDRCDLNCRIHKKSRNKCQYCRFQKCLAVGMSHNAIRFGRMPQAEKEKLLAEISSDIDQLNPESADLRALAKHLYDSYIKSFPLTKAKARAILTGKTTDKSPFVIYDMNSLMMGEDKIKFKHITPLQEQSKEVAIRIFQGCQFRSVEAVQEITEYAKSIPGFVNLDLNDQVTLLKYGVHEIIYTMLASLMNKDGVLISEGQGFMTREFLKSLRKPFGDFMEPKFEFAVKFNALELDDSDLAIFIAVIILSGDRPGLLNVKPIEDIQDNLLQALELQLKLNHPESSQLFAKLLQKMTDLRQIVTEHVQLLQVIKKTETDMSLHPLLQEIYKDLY
Assay: qHTS assay to identify small molecule agonists of the peroxisome proliferator-activated receptor gamma (PPARg) signaling pathway (AID 743094; active = well fitted activation curve with a large enough effect in the signal ratio in the repeat runs, not every such curve was filed as active; inconclusive = weak or mixed curves, or effect the other way; inactive = no such curve, though single readings can be large or run the other way; the % refers to the signal ratio; for activation: % is set by controls: 0 for no effect and ±100 for the full control effect)
Conditions: HEK293H PPARg-UAS-bla, beta-lactamase FRET ratio, 17 h; activation: at 57 µM (top of the series) unless noted
Method in brief: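 Following 5 h plating at 37C, PPARg-bla HEK293H cells receive compound or DMSO for 17 h; fluorescence intensity is recorded after LiveBLAzer B/G loading for 1 h at room temperature.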

Compound	Potency	activation
CC(=O)Oc1cc(C)c(OC(C)=O)c2ccccc12	inconclusive	
CCC(=O)NS(=O)(=O)c1ccc(-c2c(-c3ccccc3)noc2C)cc1	inconclusive [activator, partial curve]	
CCc1cn([C@H]2C[C@H](O)[C@@H](CO)O2)c(=O)[nH]c1=O	inactive	
C[C@@H]1O[C@@H](OC[C@H]2O[C@@H](Oc3c(-c4ccc(OCCO)c(OCCO)c4)oc4cc(OCCO)cc(O)c4c3=O)[C@H](O)[C@@H](O)[C@@H]2O)[C@H](O)[C@H](O)[C@H]1O	inactive	
O=C(O)[C@H]1CN(C/C=C/P(=O)(O)O)CCN1	inconclusive [falling, partial curve, poor fit]	
C=CCOc1ccc(CC(=O)O)cc1Cl	inconclusive [activator]	
CCOc1ccc(S(=O)(=O)O)c2cccnc12	inconclusive [activator, single point]	
C/C(=C(/CCO)SSCC1CCCO1)N(C=O)Cc1cnc(C)nc1N (stereo not drawn)		inconclusive: -10.2%
C[N+](C)(C)CCOP(=O)(O)OP(=O)([O-])OC[C@H]1O[C@@H](n2ccc(N)nc2=O)[C@H](O)[C@@H]1O	inactive	
O=C(O)c1nc(=O)[nH]c(=O)[nH]1		inconclusive: -12.5%
CCCCCCCCCCCCCCCC(=O)O[C@@H]1[C@@H](O)[C@@H](O)[C@@H]([C@H](NC(=O)[C@@H]2C[C@@H](CCC)CN2C)[C@H](C)Cl)O[C@@H]1SC	inactive	
CS(=O)(=O)OCC(O)C(O)COS(C)(=O)=O (stereo not drawn)	inactive	
CC(C)C[C@@H](NC(=O)[C@@H](O)[C@H](N)Cc1ccccc1)C(=O)O	inactive	
